Measurements reported in the supplement of paper PMC3334620.
Over roughly 33,000 sequences, “E-score (-0.5 to 0.5)” has its median near -0.032; the highest 2% begin near 0.36. Some of the results follow.

What follows are sequences tested against T1, Sko1 (UniProt Q02100) (assay: PBM E-score (8-mer binding enrichment) (E-score (-0.5 to 0.5)); higher = stronger / more preferred TF binding; most listed sequences are background and not binding sites). Settings: protein concentration: 200 nM; construct: GST-full length.
T1 sequence: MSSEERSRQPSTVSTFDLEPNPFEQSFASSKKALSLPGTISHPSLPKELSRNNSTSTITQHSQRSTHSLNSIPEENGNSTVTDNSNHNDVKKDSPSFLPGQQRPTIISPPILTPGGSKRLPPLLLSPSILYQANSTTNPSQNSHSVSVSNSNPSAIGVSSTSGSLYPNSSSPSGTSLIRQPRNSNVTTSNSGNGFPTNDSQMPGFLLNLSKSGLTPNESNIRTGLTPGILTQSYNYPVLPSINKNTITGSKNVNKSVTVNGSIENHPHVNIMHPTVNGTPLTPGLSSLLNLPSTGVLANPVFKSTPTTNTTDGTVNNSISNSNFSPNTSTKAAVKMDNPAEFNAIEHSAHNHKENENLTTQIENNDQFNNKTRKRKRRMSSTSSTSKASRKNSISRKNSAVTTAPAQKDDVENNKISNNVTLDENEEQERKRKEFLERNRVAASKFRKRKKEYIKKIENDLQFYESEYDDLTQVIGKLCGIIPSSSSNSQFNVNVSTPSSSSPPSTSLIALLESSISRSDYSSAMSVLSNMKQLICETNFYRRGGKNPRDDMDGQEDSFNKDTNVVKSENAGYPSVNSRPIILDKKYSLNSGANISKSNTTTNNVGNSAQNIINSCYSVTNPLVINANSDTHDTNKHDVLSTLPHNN
Summary of the method: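 Universal all-10-mer Agilent arrays, double-stranded by primer extension on fresh or once-stripped slides, were probed with about 100-200 nM GST-tagged yeast transcription factors made by PURExpress. Fluorescent anti-GST detected bound protein, and masliner normalised the scans. E-scores from the Universal PBM Analysis Suite were given to each ungapped eight-base word pooled with its reverse complement.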

Point of comparison: ACCAAGCA, “PBM E-score” value -0.0559. Against it:
- GGCAGAAA — higher, 0.0825
- GTCCTCAC — lower, -0.133
- CTCGTCTA — higher, 0.0478
- AAGTACAC — higher, 0.148
- AAGCAATA — lower, -0.188
- ATAGGCCC — lower, -0.358
- AACGGCTA — higher, 0.0154
- CGCACATA — higher, -0.0226
- CCAGGCCG — lower, -0.114
- AGAGAGCT — lower, -0.304
- CAAAAGGA — higher, 0.0715
- AGTTGGGG — higher, -0.0449
- ATTCAAGA — higher, 0.0257
- GACGAACA — higher, 0.162
- GAAAACCA — lower, -0.114
- ATCGCATA — higher, 0.0698
- ATGGGATA — lower, -0.0824
- ATCCAAAT — higher, 0.187
- TGACTCAA — higher, 0.122
- CCCTCTTC — lower, -0.347
- ATTCCCAA — higher, 0.0537
- GCGGGCCC — lower, -0.168
- GGTCCTTA — lower, -0.112
- AGATTCCG — higher, -0.043
- ACTGCTCA — higher, 0.0233
- ACATTAAC — higher, 0.126
- CTCCTTAC — lower, -0.0643
- AGCGTCCT — higher, -0.051
- AGTTCCGC — lower, -0.194
- ACGAGGAT — higher, 0.099
- GTTTTTCA — higher, 0.134
- AGTTATAA — higher, 0.147
- ATGTCGTG — higher, 0.239
- CGCATGTA — higher, 0.0621
- CGTACAAG — higher, 0.0998
- CTAATTCA — higher, 0.125
- ACTGTTAC — lower, -0.0584
- AAGCTCGA — higher, 0.0395
- CAGTGAAA — higher, 0.163
- ATGTCTGA — higher, 0.0983
- ACAGCCGG — lower, -0.146
- CATATTAA — higher, 0.174
- CCATTTTC — higher, 0.163
- AGTTATGC — higher, 0.0461
- ACAGCACC — lower, -0.136
- ACCGCCTA — lower, -0.197
- GGTTTGGA — higher, 0.104
- TAAGCACA — higher, 0.168
- GTGAGGGA — lower, -0.134
- CGGGTCCC — lower, -0.396
- AATTCTGA — higher, 0.0665
- GTCCTCAA — lower, -0.126
- CAACGTCG — higher, 0.222
- GACGCGGA — higher, -0.0051
- ATGTGCTC — higher, 0.0491
- ATCCCATG — lower, -0.0929
- ATACACTC — higher, 0.0972
- CTCAAGGC — lower, -0.334
- ATCCAGCA — higher, 0.107
- GGTCAGCA — lower, -0.122
- GCGTATAC — higher, 0.365
- CCGCATAC — lower, -0.0691
- CGTTGTAC — higher, 0.208
- AGGAGAAC — lower, -0.173
- ATGGAGTA — lower, -0.1
- ACACAAAG — higher, 0.0427
- CAAATCAA — higher, 0.141
- CCGCACAC — lower, -0.185
- CAAGTATG — higher, 0.0253
- TCGAGCGA — higher, 0.0305
- AGATCGGA — higher, 0.0328
- CCTGATTA — higher, 0.0438
- ACAGTACA — lower, -0.0864
- AATTGTCC — higher, -0.0383
- CCCGGGCC — lower, -0.327
- ATGTGGCG — higher, -0.0276
- GCCCTCGC — lower, -0.222
- GTGTATAA — higher, -0.0223
- CCGACTGA — lower, -0.162
- CACACTCA — higher, 0.137
- CCGACGCC — higher, -0.00118
- AATAGGGT — lower, -0.112
- AGCCTCCC — lower, -0.282
- ATACACTA — higher, 0.0967
- GAAGTCAA — higher, 0.0458
- AGCCTTTC — lower, -0.293
- ATTCAACA — higher, 0.13
- AATCCTTA — lower, -0.0613
- CCTTTAAC — higher, -0.0213
- CCCCCCCG — lower, -0.334
- ATTCGCGA — higher, 0.0843
- ATAGTCAT — higher, 0.107
- AAAAGCCT — lower, -0.188
- CACGCTCC — lower, -0.17
- CAGATATA — higher, 0.0956
- CGAATCCG — higher, 0.00159
- CTTGAGGC — lower, -0.219
- AACAGTAC — higher, 0.0808
- ACGCTGGC — lower, -0.0994
- TTATGCAA — higher, 0.247
- ATTGTACA — higher, 0.0552
- AAGTACGC — higher, 0.193
- GTGACAGA — higher, -0.0286
- ACTGAACG — lower, -0.114
- CGCCGGCA — lower, -0.279
- CAAAGGCC — lower, -0.25
- ACGGGCCA — lower, -0.205
- GACTGTGC — higher, 0.0399
- CCCCTGCG — lower, -0.215
- CCGACCCA — lower, -0.361
- GAAACGAC — higher, 0.178
- AAAAAAAC — higher, 0.2
- ACCCCGTA — lower, -0.0729
- ACCTAACA — higher, 0.056
- CAAGGACG — lower, -0.129
- ACTTGAGG — lower, -0.182
- GCTGCACA — lower, -0.208
- AGACAGTG — lower, -0.112
- ATGTCTGG — lower, -0.0872
- AGAATTCT — higher, 0.16
- CCTGTCGC — lower, -0.329
- AGGGAATG — lower, -0.0677
- AGACTTTA — higher, 0.0576
- GAAATCTA — higher, 0.102
- AGCACAGA — higher, 0.0216
- GAATAGCA — higher, 0.0421
- CCTTTTTC — lower, -0.115
- GTAGTTTA — higher, 0.148
- CACGAGAA — lower, -0.13
- CTCGTGAA — higher, 0.14
- CCATCGGA — lower, -0.251
- GACCTAGC — lower, -0.0851
- GCGGTTAA — lower, -0.186
- GTGAACGA — higher, 0.0244
- GCTTTTAC — higher, 0.263
- CCGGCACA — lower, -0.119
- AGAGGCCG — lower, -0.217
- ATATAAAA — higher, 0.177
- ACTTATCT — higher, 0.0568
- ACGGTTTA — lower, -0.0562
- ATTGATGC — higher, 0.0723
- CGATCGAG — lower, -0.0776
- GCATAACA — higher, 0.156
- CTGAATCA — higher, -0.0522
- GCATGGAC — higher, -0.0216
- CAGACCGG — lower, -0.16
- CGAGACAC — lower, -0.0858
- AGGCCAAC — lower, -0.15
- GTTGTTTA — higher, 0.101
- ATCTTGGA — lower, -0.106
- ACTCTAGA — higher, 0.154
- CCCTAATC — lower, -0.161
- ACGAAAGG — higher, 0.156
- CATGCCCA — lower, -0.357
- GCGGCCGC — lower, -0.285
- ACGAAGTC — higher, 0.0879
- ACACTCAT — higher, 0.131
- CAACGACG — higher, 0.128
- AGCGTGTG — higher, 0.0406
- ATAAACGA — higher, 0.204
- ACGGTCGA — lower, -0.135
- CGCATGCG — higher, 0.0824
- AACCGTTG — higher, -0.00171
- CGTGGACA — higher, 0.0971
- ACAGGGCC — lower, -0.279
- CTAGGAAC — lower, -0.0922
- CTACAGCC — lower, -0.313
- AAAACTGC — higher, -0.0189
- CTGAATGA — higher, 0.00842
- AAAGCCGT — lower, -0.115
- GCACGGGC — lower, -0.445
